Test results taken from PubChem BioAssay AID624296 (National Center for Advancing Translational Sciences (NCATS), 2012).
Several values for one entry are separate records, joined by “and”; a condition that tells them apart may be missing. Identical values can stand only once. Screen size: about 350,000 compounds; about 9,900 (2.8%) were called active. Inconclusive results, whose numbers are uncertain, are shown with a selection of clear calls. The call rests on the fitted dose curve; in most records, active means well fitted activation curve with a large enough effect; inconclusive means small, poorly fitted or top-dose-only effect; inactive means no such curve, though single readings can be large or run the other way. No potency is given beside an inconclusive call; the fits are too rough. The source holds several records for some structures; these can differ, active in one and inactive in another.

assay: A quantitative high throughput screen for small molecules that induce DNA re-replication in MCF 10a normal breast cells.; further: nearly all actives have a fitted effect of over 50% in size; settings: MCF 10A DNA re-replication, Hoechst nuclear intensity, 48 h; series mostly up to 46.1 µM
Potency means the concentration at half of the fitted maximal effect; tags describe the fitted curve by direction and shape.

Which Potency does the source give for `O=C(COc1ccc(Cl)cc1)N1CCN(Cc2ccc([N+](=O)[O-])cc2)CC1` here?
Its Potency is “inactive”.

For `COc1ccc(CNCCc2c[nH]c3ccccc23)c(OC)c1C`, which Potency is on record?
Its Potency is inconclusive [activator, partial curve, poor fit].

For `CC(Cc1ccccc1Sc1ccc(O)cc1)N(C)C` (stereo not given), which Potency is on record?
Its Potency is “inactive”.

Which Potency does the source give for `NC(N)=N/N=C/c1ccc(N(c2ccccc2)c2ccccc2)cc1` here?
The Potency was inconclusive [activator, single point].

With `O=C1C(=O)c2ccccc2-c2ccccc21` as the compound, how does the Potency read?
Its Potency is inconclusive [activator, single point].

Which Potency does the source give for `CCN1CCN(c2ccc(NC(C)=O)cc2Cl)CC1` here?
Its Potency is inconclusive [activator, partial curve, poor fit].

Which Potency does the source give for `Oc1cc2c(cc1CN1CCN(c3ccccc3F)CC1)OCO2` here?
Its Potency is “inactive”.

Which Potency does the source give for `C[C@H]1C(=O)O[C@@H]2CCN3CC=C(COC(=O)[C@](C)(O)[C@]1(C)O)[C@H]23` here?
The Potency was inconclusive [activator, single point].

With `C=C1C(=O)O[C@@H]2C[C@@H](C)[C@@H]3C=CC(=O)[C@@]3(C)[C@@H](OC(=O)CC(=O)O[C@H]3[C@@H]4C(=C)C(=O)O[C@@H]4C[C@@H](C)[C@@H]4C=CC(=O)[C@]43C)[C@H]12` as the compound, how does the Potency read?
Its Potency is inconclusive [activator, full curve, poor fit].

For `Clc1ccc(Cl)c(Oc2ccc(Oc3nc(Cl)ccc3Cl)cc2)n1`, which Potency is on record?
The Potency was inconclusive [activator, single point].

For `Cc1ccc(S(=O)(=O)Oc2ccccc2C=C2C(=O)N(C)C(=O)N(C)C2=O)cc1`, which Potency is on record?
The Potency was inconclusive [activator, single point].

Which Potency does the source give for `C[N+](C)(C)CC1CCCC(C[N+](C)(C)C)C1=O` (stereo not given) here?
Its Potency is inconclusive [activator, full curve, poor fit].

Which Potency does the source give for `COC1=C[C@@H]2C3=C([C@@H]2C1=O)[C@@H](NC(C)=O)CCc1cc(OC)c(OC)c(OC)c13` here?
The Potency was “inactive”.

With `COc1cc([N+](=O)[O-])c2nc(C)ccc2c1[N+](=O)[O-]` as the compound, how does the Potency read?
The Potency was inconclusive [activator, single point].

Which Potency does the source give for `COC(=O)C1=C(c2ccc3ccccc3c2)C[C@@H]2CC[C@H]1N2C(=O)NCC1CC1` here?
Its Potency is “inactive”.

Which Potency does the source give for `CCCCC(CC)COC(=O)CCCCC(=O)OCC(CC)CCCC` (stereo not given) here?
Its Potency is inconclusive [activator, full curve, poor fit].

Which Potency does the source give for `CN(C)c1ccc(C=C2C(=O)NC(=S)NC2=O)cc1` here?
Its Potency is inconclusive [activator, single point].

With `COC(=O)C1=C(c2cccc(OCc3ccccc3)c2)C[C@@H]2CC[C@H]1N2C(=O)NCc1ccc(F)cc1` as the compound, how does the Potency read?
The Potency was “inactive”.

With `CCOC(=O)C1(CCOc2ccccc2)CCN(C2Cc3ccccc3C2)CC1` as the compound, how does the Potency read?
The Potency was active: 9.2 µM.

Which Potency does the source give for `CN(C)C(=S)SSC(=S)N(C)C` here?
The Potency was “inactive and active: 21.1 µM”.

Which Potency does the source give for `COc1ccc2nc(NC(=O)CCc3nc(C4=CCN(C)CC4)no3)sc2c1` here?
The Potency was “inactive”.

For `Cc1ccc(C)c(Cn2c(C(=O)O)c(C=O)c3ccccc32)c1`, which Potency is on record?
Its Potency is inconclusive [activator, single point].

With `Cc1cc(C=C2C(=O)NC(=S)NC2=O)c(C)n1-c1ccc2c(c1)OCO2` as the compound, how does the Potency read?
The Potency was inconclusive [activator, single point].

With `O=C1C2CCCC1C(N1CCCC1)CC2` (stereo not given) as the compound, how does the Potency read?
The Potency was inconclusive [activator, single point].

For `COC(=O)C1=C(c2ccc(F)cc2OCc2ccccc2)C[C@@H]2CC[C@H]1N2C(=O)NCc1cc(C)oc1C(F)(F)F`, which Potency is on record?
The Potency was inconclusive [activator, single point].

With `Cc1cccc(N2CCN(C(=O)CCNS(=O)(=O)c3ccc4c(c3)oc(=O)n4C)CC2)c1C` as the compound, how does the Potency read?
The Potency was inconclusive [activator, partial curve, poor fit].

Which Potency does the source give for `Cc1ccnc(NS(=O)(=O)c2ccc(N=Cc3c(O)n(C)c(=O)n(C)c3=O)cc2)n1` here?
The Potency was “inactive”.

For `CN1C2CCC1CC(=NO)C2`, which Potency is on record?
Its Potency is “inactive”.

For `O=C(Cc1ccccc1)OCc1ccccc1`, which Potency is on record?
Its Potency is inconclusive [activator, full curve, poor fit].

For `CN1C(CC(O)c2ccccc2)CCCC1CC(O)c1ccccc1` (stereo not given), which Potency is on record?
Its Potency is inconclusive [activator, full curve, poor fit].

For `CC(C)C(=O)N1CCC(CN=Cc2c(O)n(C3CCCCC3)c(=O)n(C3CCCCC3)c2=O)CC1`, which Potency is on record?
The Potency was inconclusive [activator, single point].

With `O=c1[nH]c(=O)n(Cc2ccccc2)c(O)c1/C=C1\C=Nc2ccccc21` as the compound, how does the Potency read?
The Potency was inconclusive [activator, single point].

With `C=CCN1C(=O)NC(=O)/C(=C\c2ccc(-c3ccccc3[N+](=O)[O-])o2)C1=O` as the compound, how does the Potency read?
Its Potency is inconclusive [activator, single point].

For `O=c1c2ccccc2nc(CSc2ncnc3nc[nH]c23)n1-c1ccc(Cl)c(Cl)c1`, which Potency is on record?
The Potency was inconclusive [activator, single point].

For `O=c1[nH]c(=S)[nH]c(O)c1N=Nc1ccc(SC(F)F)cc1`, which Potency is on record?
The Potency was inconclusive [activator, partial curve, poor fit].

For `CCCCCCn1c(=O)c(C(=O)Nc2cnccn2)c(O)c2ccccc21`, which Potency is on record?
The Potency was inconclusive [activator, full curve, poor fit].

For `O=C(NCCCN1CC1)Nc1cccc2ccccc12`, which Potency is on record?
Its Potency is inconclusive [activator, single point].

Which Potency does the source give for `Brc1ccc(Oc2ccc(Br)cc2Br)c(Br)c1` here?
Its Potency is inconclusive [activator, partial curve, poor fit].

Which Potency does the source give for `O=c1ccc2cc(O[C@@H]3O[C@@H](CO)[C@H](O)[C@@H](O)[C@@H]3O)c(O)cc2o1` here?
The Potency was active: 18.4 µM.

For `CN1[C@@H]2CC[C@H]1CC(OC1c3ccccc3CCc3ccccc31)C2` (stereo not given in full), which Potency is on record?
The Potency was “inactive”.

With `COc1ccc(C2c3c(nc(C)[nH]c3=O)Oc3c2c(=O)oc2ccccc32)cc1` (stereo not given) as the compound, how does the Potency read?
The Potency was “inactive”.

For `N#Cc1ccccc1Cn1cc(C(=O)C2CC2)c2ccccc21`, which Potency is on record?
The Potency was inconclusive [activator, full curve, poor fit].

For `Cc1ccc(C(=O)N[C@@H](C)CN2C3=NC[C@H](Cc4ccccc4)N3C[C@H]2Cc2ccc(O)cc2)cc1Br`, which Potency is on record?
Its Potency is inconclusive [activator, single point].

With `O=C(c1ccccc1)N1C(=O)C(c2ccccc2)Oc2ccccc21` (stereo not given) as the compound, how does the Potency read?
Its Potency is inconclusive [activator, partial curve, poor fit].

For `O=C(O)C1=CC2c3ccccc3C1c1ccccc12`, which Potency is on record?
Its Potency is “inactive”.

With `COC(=O)C1=CO[C@@H](C)[C@@H]2CN3CC[C@@]4(C(=O)Nc5ccccc54)[C@@H]3C[C@H]12` as the compound, how does the Potency read?
The Potency was inconclusive [activator, single point].

With `C[C@]12C=CC(=O)C=C1CC[C@@H]1C2=CC[C@]2(C)[C@@H](C(=O)CN3CCN(c4cc(N5CCCC5)nc(N5CCCC5)n4)CC3)CC[C@@H]12` as the compound, how does the Potency read?
Its Potency is inconclusive [activator, single point].

Which Potency does the source give for `O=C1CC(=O)N(c2ccc(Cl)cc2)C(=O)N1` here?
The Potency was inconclusive [activator, single point].

With `CN1CCc2nc3sc(C(=O)NC(C)(C)C)c(N)c3cc2C1` as the compound, how does the Potency read?
The Potency was inconclusive [activator, single point].

With `CN1C(=O)/C(=C/c2ccc(N3CCCCCC3)o2)C(=O)NC1=S` as the compound, how does the Potency read?
The Potency was inconclusive [activator, partial curve, poor fit].

With `CC/C(=N\Nc1cccc2ccccc12)c1c(O)[nH]c(=O)[nH]c1=O` as the compound, how does the Potency read?
Its Potency is inconclusive [activator, single point].

For `CNCC(O)c1cc(F)c(OCc2ccccc2)c(OCc2ccccc2)c1F` (stereo not given), which Potency is on record?
Its Potency is inconclusive [activator, partial curve, poor fit].

Which Potency does the source give for `CCC1(O)CCC2C3CCC4=CC(=O)CCC4C3CCC21CC` (stereo not given) here?
The Potency was “inactive”.

With `COCCNC(=O)Cn1cc(C=C2C(=O)NC(=O)NC2=O)c2ccccc21` as the compound, how does the Potency read?
Its Potency is inconclusive [activator, single point].

For `Cc1ccccc1NC(=O)CCl`, which Potency is on record?
The Potency was “inactive”.

With `CC(C)CCNc1nnnc2c1sc1nc(N3CCOCC3)c3c(c12)CC(C)(C)SC3` as the compound, how does the Potency read?
Its Potency is inconclusive [activator, partial curve, poor fit].

Which Potency does the source give for `O=C1NC(=S)NC(=O)C1=Cc1c(Cl)cccc1Cl` here?
The Potency was inconclusive [activator, single point].

With `Cc1ccc(NC(=O)c2cn(CCC#N)nc2-c2ccc3c(c2)OCCO3)c([N+](=O)[O-])c1` as the compound, how does the Potency read?
The Potency was “inactive”.

Which Potency does the source give for `Cc1cccc(CN2CCCC(C(=O)c3ccc4c(c3)OCO4)C2)n1` (stereo not given) here?
The Potency was inconclusive [activator, single point].

Which Potency does the source give for `N#CC(C#N)=Cc1ccc(C=C(C#N)C#N)cc1` here?
Its Potency is inconclusive [activator, single point].

With `CCCCn1c(C)c(C(=O)OCC)c2c(CN3CCCC3)c(O)ccc21` as the compound, how does the Potency read?
The Potency was “inactive”.

Which Potency does the source give for `CCOC(=O)C(C)Oc1cc(C)cc2oc(=O)c3c(c12)CCCC3` (stereo not given) here?
The Potency was inconclusive [activator, partial curve, poor fit].

For `COC(=O)C1=C(c2c(C)noc2C)C[C@@H]2CC[C@H]1N2C(=O)NC1CCCCC1`, which Potency is on record?
Its Potency is inconclusive [activator, single point].

Which Potency does the source give for `Cc1ccc(N2C(=O)NC(=O)/C(=C/C=C/c3ccco3)C2=O)cc1` here?
The Potency was active: 9.2 µM.

With `Cn1c2ccccc2c2c(C(=O)N3CCC4(CC3)OCCO4)cn(C3CCCCC3)c(=O)c21` as the compound, how does the Potency read?
Its Potency is inconclusive [activator, single point].
